From PubChem BioAssay AID1508642 (National Center for Advancing Translational Sciences (NCATS), 2021)
Screen size: about 43,000 compounds; about 200 (0.47%) were called active. Inconclusive results (about 12%) are left out. Calls follow the shape of the dose curve; as a rule, active = well fitted cell-killing curve with a large enough effect; inconclusive = small, poorly fitted or top-dose-only effect, or effect the other way; inactive = flat fitted curve, though single readings scatter. The list shows a part of the results.

Assay: Cell viability qHTS assay in S16 Pmp22-F2sN cells; also: nearly all actives have a fitted effect of over 65% in size
Conditions: S16 Pmp22-F2sN Schwann cells (luciferase reporters placed in the Pmp22 gene) viability, CellTiter-Glo, 24 h; series mostly up to 57.5 µM; activity change, negative = cytotoxicity: at the top concentration
Outline: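 Luminescence from CellTiter-Glo, read by CCD camera after a 15 min room-temperature incubation, served as the viability signal. Reporter Schwann cells (S16 Pmp22-F2sN) had been treated with pin-transferred compounds for 24 h at 37C.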
% is scaled to controls: 0 for no effect and ±100 for the full control effect.

Row | SMILES | activity change, negative = cytotoxicity
1 | COc1ccc(CNC(=O)CN2C(=O)COc3ccc(S(=O)(=O)N4CCOCC4)cc32)cc1 | inactive: 7.09%
2 | CCOc1ccc(/C=C/c2nc(C#N)c(N3CCN(c4ccccc4)CC3)o2)cc1 | inactive: 14.6%
3 | CCOCN(C(=O)Cn1cnc2cc(C)c(C)cc21)c1c(C)cccc1CC | inactive: 1.38%
4 | COc1ccc(Br)cc1CNC(=O)C1COc2ccccc2C1 (configuration not stated) | inactive: 8.28%
5 | O=C(Nc1ccc(C(=O)N2CCN(c3ccc(Cl)cc3)CC2)cc1)c1nsc2ccccc12 | inactive: -15.3%
6 | CC(C)c1ccc(NC(=O)Cn2nnc(C(=O)NCc3cccs3)c2N)cc1 | inactive: 5.82%
7 | Fc1ccc(Nc2nc(Nc3ccc(F)cc3)nc(N3CCOCC3)n2)cc1 | inactive: 4.09%
8 | CCCCn1c(SCC(=O)Nc2ccc(F)cc2)nc2c(sc3ccccc32)c1=O | inactive: -2.41%
9 | COc1ccc(C(=O)NCC(c2ccc3c(c2)OCO3)N2CCN(c3ccc(F)cc3)CC2)cc1 (configuration not stated) | inactive: -13%
10 | Cc1ccc(N(CC(C)C)S(=O)(=O)c2nnc(NC(=O)c3cccs3)s2)cc1 | inactive: -26.9%
11 | CCOc1ccccc1N(CC(=O)Nc1ccc(OC)c(Cl)c1)S(=O)(=O)c1ccccc1 | inactive: -0.806%
12 | O=C(CSc1nnc(-c2ccc(Br)cc2)n1-c1ccccc1)c1ccccc1 | inactive: -4.82%
13 | Cc1ccc2oc3c(c(=O)c2c1)C(c1ccc(OCC(N)=O)cc1)N(Cc1ccc2c(c1)OCO2)C3=O (configuration not stated) | inactive: -2.65%
14 | CNC(=O)CSc1nnc(NC(=O)Nc2ccccc2)s1 | inactive: 0.172%
15 | COc1ccc(NC(=O)C(=O)NCC2(c3ccccc3)CCCC2)c(OC)c1 | inactive: -11.6%
16 | COc1ccccc1Cc1nc2ccccc2nc1SCC(=O)N1CCC(C)CC1 | inactive: -1.17%
17 | CCOC(=O)c1cc(-c2ccccc2)n(CCCC(=O)Nc2cc(C)ccc2OC)c1C | inactive: -4.95%
18 | Cc1cccc(C(=O)Nc2ccc(N3CCN(c4ccc(F)cc4)CC3)c(C(=O)O)c2)c1 | inactive: 1.01%
19 | COc1ccccc1NC(=O)c1cc(C2CC2)nc2c1c(C)nn2-c1ccc(C)cc1 | inactive: 0.165%
20 | CC(C)CCN(Cc1ccco1)C(=O)Cn1ncc2c([nH]c3ccccc32)c1=O | inactive: -0.693%
21 | O=c1c(N2CCc3ccccc3C2)csc2ccc(Br)cc12 | inactive: -1.61%
22 | COc1ccc(S(=O)(=O)c2cn(Cc3ccccc3)c3cc(F)c(F)cc3c2=O)cc1 | inactive: -2.5%
23 | CN1C(=O)c2[nH]nc(-c3ccc(F)cc3)c2C1c1ccccn1 (configuration not stated) | inactive: -3.98%
24 | CCOc1ccc(C(=O)NCc2ccc3c(c2)CCN3C(=O)c2ccc(C)cc2)cc1OCC | inactive: -8.67%
25 | COc1ccc(Nc2cc(C(=O)NCc3ccccc3)c3ccccc3n2)cc1OC | inactive: 5.85%

Row | SMILES | activity change, negative = cytotoxicity
26 | Cc1ccn2c(Nc3ccc4c(c3)OCCO4)c(-c3ccc(C)s3)nc2c1 | inactive: -0.161%
27 | Cc1ccc2nc(SCC(=O)Nc3ccc(C#N)cc3)[nH]c2c1 | inactive: -4.09%
28 | Cc1c(C(=O)N2CCC(C)CC2)c(S(=O)(=O)N2CCN(c3cccc(Cl)c3)CC2)c(C)n1C | inactive: 4.27%
29 | COc1ccc(OC)c(NC(=O)CCc2nc(-c3ccc(C)cc3)no2)c1 | inactive: -7.06%
30 | COc1ccc(NC(=O)c2cc3c(=O)n(Cc4cccnc4)ccc3nc2C)cc1Cl | inactive: -22.7%
31 | COc1ccccc1NC(=O)c1cc(S(=O)(=O)N2CCc3ccccc32)ccc1F | inactive: -2.46%
32 | COc1cc(-c2nnc(SCC(=O)Oc3ccccc3Cl)o2)cc(OC)c1OC | inactive: 14.7%
33 | COc1ccc(S(=O)(=O)c2cn(Cc3ccccc3)c3ccc(OC)cc3c2=O)cc1 | inactive: -8.06%
34 | CN(C)c1ccc(C(CNS(=O)(=O)c2ccc(F)cc2)N2CCc3ccccc32)cc1 (configuration not stated) | inactive: -1.95%
35 | C=Cc1ccc(Cn2c(=O)cc(C)c3c(C)nn(C)c32)cc1 | inactive: -2.08%
36 | Cc1cccc(N2CCN(c3c4c(nc5nncn35)CCC4)CC2)c1C | inactive: 8.1%
37 | Cc1cc(Cl)ccc1OCc1cc(=O)n2c3c(sc2n1)CCCC3 | inactive: 10.2%
38 | Cc1ccc(CN2C(=O)c3ccccc3Sc3ccc(C(=O)NCCCN4CCOCC4)cc32)cc1 | inactive: -27.6%
39 | COc1ccccc1-c1nnc(SCC(=O)c2ccc(F)cc2)n1-c1ccccc1 | inactive: -0.411%
40 | CCc1ccc(CNC(=O)CN2C(=O)CCn3nc(-c4cn(C)c5ccccc45)cc32)cc1 | inactive: 8.55%
41 | O=C(Nc1cccc(Cl)c1)C1CCCN1S(=O)(=O)c1cccc2cccnc12 (configuration not stated) | inactive: -0.0646%
42 | Cn1nnnc1SCCNCc1ccc(OCc2ccc(Cl)cc2)cc1 | inactive: -3.26%
43 | Cc1cccc(NC(=O)CSc2nc(=O)n(Cc3cccnc3)c3c2CCC3)c1C | inactive: -5.73%
44 | Cc1oc(-c2cccc(Cl)c2)nc1CN1CCC(C(=O)NCCc2ccc(Cl)cc2)CC1 | inactive: 21.8%
45 | CCc1ccc(C2=C(C)C(N3CCC(C(=O)NCCc4ccco4)CC3)=NS2(=O)=O)cc1 | inactive: -10.1%
46 | COc1cccc(OCC(=O)Nc2nnc3n2CCS3)c1 | inactive: 1.6%
47 | CCc1noc(-c2ccc(N3CCCCC3)c([N+](=O)[O-])c2)n1 | inactive: -2.09%
48 | Cc1cc(OCC(=O)NCC2(N3CCOCC3)CCCCC2)ccc1Cl | inactive: -27.4%
49 | Brc1ccc2nc(-c3ccccc3)c(Nc3ccc4c(c3)OCO4)n2c1 | inactive: 8.92%
50 | CCc1cccc(NC(=O)C(CC(C)C)NS(=O)(=O)c2ccc3c(c2)oc(=O)n3C)c1 (configuration not stated) | inactive: -27.7%

Row | SMILES | activity change, negative = cytotoxicity
51 | CCC(=O)N1CCc2cc(CNC(=O)Nc3cc(Cl)ccc3C(=O)OC)ccc21 | inactive: 14.2%
52 | CCSc1nn(CC(=O)Nc2ccc(C(=O)OC)cc2)c(N)c1S(=O)(=O)c1ccc(C)cc1 | inactive: -0.443%
53 | COc1cccc(-n2nnc(-c3nc(-c4ccccc4F)no3)c2C)c1 | inactive: 1.17%
54 | COC(=O)c1cc2occc2n1CC(=O)Nc1ccc(C(C)C)cc1 | inactive: 7.83%
55 | O=C(Nc1ccc(F)cc1)N1CCN(C(=O)c2nsc3ccccc23)CC1 | inactive: -1.05%
56 | COc1ccc(-c2nc3c(c(SCC(=O)N4CCCCC4)n2)Cc2c(CO)cnc(C)c2O3)cc1 | inactive: -1.96%
57 | CSc1cccc(NC(=O)Cn2ncn3c(cc4ccccc43)c2=O)c1 | inactive: 6.09%
58 | O=C(Nc1cccc(F)c1F)C1CCN(c2ncccn2)CC1 | inactive: 3.18%
59 | CCOc1ccccc1NC(=O)C(c1ccccc1)N1Cc2ccccc2C1=O (configuration not stated) | inactive: 9.41%
60 | Fc1ccccc1N1CCN(c2ncc3c(n2)CCN(Cc2cc(Br)cs2)C3)CC1 | inactive: 2.74%
61 | Cn1nnc2c(N3CCN(c4cccc(C(F)(F)F)c4)CC3)ncnc21 | inactive: 13.6%
62 | COc1ccc(OC)c(CNC(=O)CN2CC(C)Sc3ccccc32)c1 (configuration not stated) | inactive: 3.72%
63 | Cc1cccc(N2CCN(C(c3ccccc3)c3nnc(-c4ccccc4Cl)o3)CC2)c1C (configuration not stated) | inactive: -6.78%
64 | COc1ccc(-n2ncc(C(=O)N3CCOCC3)c2C2CCN(C(=O)OC(C)(C)C)CC2)cc1 | inactive: 8.2%
65 | COc1ccc(CNC(=O)c2cnc(N3CCOCC3)c3ccccc23)cc1 | inactive: -0.0974%
66 | N#Cc1ccccc1NC(=O)CSc1nnc(N)s1 | inactive: 5.34%
67 | Cc1ccc(Cl)cc1N1CCN(C(=O)c2cc3c(-c4ccccc4F)nn(C)c3s2)CC1 | inactive: 21.9%
68 | CCc1ccc2oc(-c3cc(NC(=O)c4cc([N+](=O)[O-])ccc4N4CCOCC4)ccc3Cl)nc2c1 | inactive: 13.5%
69 | CCCN(CCC)C(=O)Cn1c(=O)n(-c2ccc(Cl)cc2)c(=O)c2c3c(sc21)CCCC3 | inactive: 17.5%
70 | COc1ccc(NC(=O)CSc2nc(-c3ccco3)cc(C(F)(F)F)n2)cc1Cl | inactive: -29.1%
71 | CCN(C(=O)c1cn(CC)c(=O)c2cc(OC)c(OC)cc12)c1ccc(C)c(C)c1 | inactive: 29.7%
72 | CC1CCc2c(sc3nnn(CC(=O)Nc4ccc(Cl)cc4)c(=O)c23)C1 (configuration not stated) | inactive: -2.98%
73 | Cc1ccc(N2CCN(S(=O)(=O)c3ccc4[nH]c5c(c4c3)CCCCC5)CC2)c(C)c1 | inactive: -14%
74 | Cn1c(=O)c2sccc2n2c(CCCC(=O)NCc3ccccc3)nnc12 | inactive: -2.19%
75 | Cc1cccc(NC(=O)CCc2c(C)nc3c(c(C)nn3C(C)(C)C)c2C)c1C | inactive: -24.2%

Row | SMILES | activity change, negative = cytotoxicity
76 | O=C1COc2ccc(-c3cc(-c4ccccc4)c4c(n3)-c3cc(Cl)ccc3OC4)cc2N1 | inactive: 0.546%
77 | COC(=O)c1sccc1S(=O)(=O)N(CC(=O)NCc1ccc(F)cc1)c1ccc(Cl)cc1 | inactive: -14%
78 | COc1ccc(CNC(=O)c2ccc(CNS(=O)(=O)c3ccc(F)cc3)cc2)cc1 | inactive: 9.79%
79 | Cc1ccc(NC(=O)Cn2nnc(C(=O)NCc3cccs3)c2N)cc1Cl | inactive: -2.18%
80 | Cc1nn(CC(=O)N2CCN(c3cccc(C(F)(F)F)c3)CC2)c(=O)c2cccn12 | inactive: -4.7%
81 | Cc1nn(C)c2c1c(C(F)(F)F)cc(=O)n2C(C)C(=O)NCc1ccccc1Cl (configuration not stated) | inactive: 16.5%
82 | Cc1ccccc1NC(=O)CSc1nnc(-c2cccs2)o1 | inactive: 13.3%
83 | COc1ccc(CCNC(=O)c2ccc3c(c2)N(Cc2ccccc2C)C(=O)c2ccccc2S3)cc1OC | inactive: 2.73%
84 | COc1ccccc1NC(=O)CSC1=Nc2ccccc2C2=NC(CC(=O)NCc3cccs3)C(=O)N12 (configuration not stated) | inactive: 4.25%
85 | Cc1oc(-c2cccc(Cl)c2)nc1Cn1c(SCc2ccccc2F)nc2ccncc21 | inactive: 11.3%
86 | Cc1cc(C)cc(NC(=O)Cn2c(C(F)(F)F)nc3ccccc32)c1 | inactive: 10.7%
87 | O=C(CSc1ccc2nc(-c3ccccc3)cn2n1)Nc1cccc(F)c1 | inactive: 6.89%
88 | COc1ccc(NC(=O)c2c(NC(=O)Cc3ccccc3)sc3c2CCCC3)cc1 | inactive: -5.17%
89 | Cc1ccc(NC(=O)C2CCCN2S(=O)(=O)c2ccc3c(c2)CCCC(=O)N3)cc1Cl (configuration not stated) | inactive: -4.22%
90 | Cc1cccc(NC(=O)CSc2nc3ccc(NC(=O)COc4ccccc4F)cc3s2)c1 | inactive: 23.5%
91 | Cc1cc(F)ccc1NC(=O)Cn1c(=O)ccc2cc(S(=O)(=O)N3CCC(C)CC3)ccc21 | inactive: -5.35%
92 | CCN(CC)CCCNC(=O)CN1N=C(c2ccccc2)CCC1=O | inactive: 4.63%
93 | COc1ccc(NC(=O)Cn2c(=O)n(Cc3ccc(C(=O)NCc4ccccc4Cl)cc3)c(=O)c3ccccc32)cc1 | inactive: 15.3%
94 | COc1ccc(Cn2nnc3c(=O)[nH]c(C4CCN(C(=O)c5ccc(C)cc5)CC4)nc32)cc1OC | inactive: -25.2%
95 | O=C1c2[nH]nc(-c3ccccc3O)c2C(c2ccc(F)cc2)N1CCO (configuration not stated) | inactive: 0.0834%
96 | COc1ccc(OC)c(NC(=O)Cc2c(C(=O)O)n(C)c3ccc(C)cc23)c1 | inactive: 0.25%
97 | COc1ccc(NC(=O)CSc2nccn2Cc2ccco2)c(OC)c1 | inactive: 0.387%
